From ChEMBL document CHEMBL4038337, “Discovery of an Orally Bioavailable, Brain-Penetrating, in Vivo Active Phosphodiesterase 2A Inhibitor Lead Series for the Treatment of Cognitive Disorders” (J Med Chem, 2017)

Experiments:
[1] = target: Dual specificity calcium/calmodulin-dependent 3',5'-cyclic nucleotide phosphodiesterase 1A (Homo sapiens, UniProt P54750)
[2] = target: cGMP-inhibited 3',5'-cyclic phosphodiesterase 3A (Homo sapiens, UniProt Q14432)
[3] = target: 3',5'-cyclic-AMP phosphodiesterase 4D (Homo sapiens, UniProt Q08499)
[4] = target: cGMP-specific 3',5'-cyclic phosphodiesterase (Homo sapiens, UniProt O76074)
[5] = target: Rod cGMP-specific 3',5'-cyclic phosphodiesterase alpha/beta (Homo sapiens, UniProt P16499+P35913)
[6] = target: 3',5'-cyclic-AMP phosphodiesterase 7B (Homo sapiens, UniProt Q9NP56)
[7] = target: High affinity cAMP-specific and IBMX-insensitive 3',5'-cyclic phosphodiesterase 8A (Homo sapiens, UniProt O60658)
[8] = target: High affinity cGMP-specific 3',5'-cyclic phosphodiesterase 9A (Homo sapiens, UniProt O76083)
[9] = target: Dual 3',5'-cyclic-AMP and -GMP phosphodiesterase 11A (Homo sapiens, UniProt Q9HCR9)
in vivo [10] = conditions: Crl:CD (SD) IGS, rat, iv, 0.1 mg/kg
in vivo [11] = conditions: ICR, mouse, iv, 0.1 mg/kg
in vivo [12] = conditions: Crl:CD (SD) IGS, rat, iv, 0.1 mg/kg; remark: listed apart in the source
in vivo [13] = conditions: ICR, mouse, iv, 0.1 mg/kg; remark: listed apart in the source
in vivo [14] = conditions: Crl:CD (SD) IGS, rat, po, 1 mg/kg
in vivo [15] = conditions: ICR, mouse, po, 1 mg/kg
in vivo [16] = conditions: Crl:CD (SD) IGS, rat, po, 1 mg/kg; remark: listed apart in the source
in vivo [17] = conditions: ICR, mouse, po, 1 mg/kg; remark: listed apart in the source
in vivo [18] = conditions: Crl:CD (SD) IGS, rat, po, 1 mg/kg; remark: listed apart in the source
in vivo [19] = conditions: ICR, mouse, po, 1 mg/kg; remark: listed apart in the source
in vivo [20] = conditions: Crl:CD (SD) IGS, rat, po, 1 mg/kg; remark: listed apart in the source
in vivo [21] = conditions: ICR, mouse, po, 1 mg/kg; remark: listed apart in the source
in vivo [22] = conditions: ICR, mouse, brain, po, 1 mg/kg
in vivo [23] = conditions: Crl:CD (SD) IGS, rat, brain, po, 1 mg/kg
physchem = conditions: octanol/water, pH 7.4
[24] = target: cAMP and cAMP-inhibited cGMP 3',5'-cyclic phosphodiesterase 10A (Homo sapiens, UniProt Q9Y233); assay: biochemical

Chain of cGMP-inhibited 3',5'-cyclic phosphodiesterase 3A (Q14432 whole entry): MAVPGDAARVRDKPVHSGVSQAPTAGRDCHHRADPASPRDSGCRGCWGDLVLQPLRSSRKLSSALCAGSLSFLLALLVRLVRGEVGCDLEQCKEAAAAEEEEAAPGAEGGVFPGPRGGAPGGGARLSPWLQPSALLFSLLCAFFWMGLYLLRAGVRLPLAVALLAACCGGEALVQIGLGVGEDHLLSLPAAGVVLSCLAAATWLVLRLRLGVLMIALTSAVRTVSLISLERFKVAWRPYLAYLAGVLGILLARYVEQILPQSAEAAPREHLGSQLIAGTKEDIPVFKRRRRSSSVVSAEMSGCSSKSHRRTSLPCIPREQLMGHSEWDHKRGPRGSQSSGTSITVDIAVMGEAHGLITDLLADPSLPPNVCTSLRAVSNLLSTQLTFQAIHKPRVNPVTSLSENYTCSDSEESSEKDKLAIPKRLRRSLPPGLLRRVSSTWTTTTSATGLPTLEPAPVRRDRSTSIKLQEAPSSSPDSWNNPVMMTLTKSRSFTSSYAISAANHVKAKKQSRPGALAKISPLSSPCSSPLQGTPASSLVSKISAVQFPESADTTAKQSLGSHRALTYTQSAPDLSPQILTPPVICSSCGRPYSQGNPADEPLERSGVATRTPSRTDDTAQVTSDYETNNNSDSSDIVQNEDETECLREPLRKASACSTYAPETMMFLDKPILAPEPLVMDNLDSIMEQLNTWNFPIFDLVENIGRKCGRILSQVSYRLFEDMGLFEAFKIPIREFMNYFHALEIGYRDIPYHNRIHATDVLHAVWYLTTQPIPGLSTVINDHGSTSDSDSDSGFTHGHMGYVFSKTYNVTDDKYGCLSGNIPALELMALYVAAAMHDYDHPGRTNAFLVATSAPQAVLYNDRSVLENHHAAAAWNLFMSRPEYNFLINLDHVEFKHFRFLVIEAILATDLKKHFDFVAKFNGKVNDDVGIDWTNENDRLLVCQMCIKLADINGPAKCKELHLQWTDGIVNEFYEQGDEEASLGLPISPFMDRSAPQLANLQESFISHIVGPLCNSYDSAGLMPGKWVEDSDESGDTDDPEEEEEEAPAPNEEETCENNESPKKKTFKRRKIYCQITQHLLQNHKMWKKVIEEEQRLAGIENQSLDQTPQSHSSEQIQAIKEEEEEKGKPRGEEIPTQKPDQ
Chain of High affinity cAMP-specific and IBMX-insensitive 3',5'-cyclic phosphodiesterase 8A (O60658 whole entry): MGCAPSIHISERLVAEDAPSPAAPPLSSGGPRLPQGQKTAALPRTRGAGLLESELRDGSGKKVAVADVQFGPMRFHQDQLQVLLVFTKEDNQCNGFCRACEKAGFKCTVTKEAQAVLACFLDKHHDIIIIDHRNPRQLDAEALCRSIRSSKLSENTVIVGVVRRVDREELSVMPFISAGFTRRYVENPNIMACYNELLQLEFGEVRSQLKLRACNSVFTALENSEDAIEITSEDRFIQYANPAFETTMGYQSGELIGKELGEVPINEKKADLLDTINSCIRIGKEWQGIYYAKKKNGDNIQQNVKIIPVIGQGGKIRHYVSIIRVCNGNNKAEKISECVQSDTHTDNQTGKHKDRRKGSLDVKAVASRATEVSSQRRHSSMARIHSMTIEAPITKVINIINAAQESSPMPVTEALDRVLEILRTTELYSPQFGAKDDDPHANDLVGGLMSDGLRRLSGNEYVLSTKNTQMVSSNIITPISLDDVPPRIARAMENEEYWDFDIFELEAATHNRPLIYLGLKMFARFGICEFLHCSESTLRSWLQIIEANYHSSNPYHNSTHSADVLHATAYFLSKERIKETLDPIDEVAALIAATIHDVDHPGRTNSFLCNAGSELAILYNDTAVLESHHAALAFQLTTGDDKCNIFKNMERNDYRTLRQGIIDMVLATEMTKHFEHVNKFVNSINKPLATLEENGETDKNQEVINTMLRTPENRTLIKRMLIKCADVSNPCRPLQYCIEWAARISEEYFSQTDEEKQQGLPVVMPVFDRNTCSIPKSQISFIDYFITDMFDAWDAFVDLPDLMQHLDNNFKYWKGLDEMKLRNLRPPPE
Chain of 3',5'-cyclic-AMP phosphodiesterase 7B (Q9NP56 whole entry): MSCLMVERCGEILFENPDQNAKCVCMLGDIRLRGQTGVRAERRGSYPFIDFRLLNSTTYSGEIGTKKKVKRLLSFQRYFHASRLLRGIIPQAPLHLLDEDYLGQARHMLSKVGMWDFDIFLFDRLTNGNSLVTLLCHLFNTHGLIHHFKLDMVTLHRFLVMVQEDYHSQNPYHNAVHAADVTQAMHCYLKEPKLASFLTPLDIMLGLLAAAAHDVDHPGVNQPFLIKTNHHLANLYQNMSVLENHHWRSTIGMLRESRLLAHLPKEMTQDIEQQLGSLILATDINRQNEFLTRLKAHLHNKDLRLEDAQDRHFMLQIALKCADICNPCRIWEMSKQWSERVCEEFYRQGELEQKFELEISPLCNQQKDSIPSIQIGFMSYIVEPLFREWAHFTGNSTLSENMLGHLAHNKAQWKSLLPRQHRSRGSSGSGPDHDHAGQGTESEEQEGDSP
Chain of High affinity cGMP-specific 3',5'-cyclic phosphodiesterase 9A (O76083 whole entry): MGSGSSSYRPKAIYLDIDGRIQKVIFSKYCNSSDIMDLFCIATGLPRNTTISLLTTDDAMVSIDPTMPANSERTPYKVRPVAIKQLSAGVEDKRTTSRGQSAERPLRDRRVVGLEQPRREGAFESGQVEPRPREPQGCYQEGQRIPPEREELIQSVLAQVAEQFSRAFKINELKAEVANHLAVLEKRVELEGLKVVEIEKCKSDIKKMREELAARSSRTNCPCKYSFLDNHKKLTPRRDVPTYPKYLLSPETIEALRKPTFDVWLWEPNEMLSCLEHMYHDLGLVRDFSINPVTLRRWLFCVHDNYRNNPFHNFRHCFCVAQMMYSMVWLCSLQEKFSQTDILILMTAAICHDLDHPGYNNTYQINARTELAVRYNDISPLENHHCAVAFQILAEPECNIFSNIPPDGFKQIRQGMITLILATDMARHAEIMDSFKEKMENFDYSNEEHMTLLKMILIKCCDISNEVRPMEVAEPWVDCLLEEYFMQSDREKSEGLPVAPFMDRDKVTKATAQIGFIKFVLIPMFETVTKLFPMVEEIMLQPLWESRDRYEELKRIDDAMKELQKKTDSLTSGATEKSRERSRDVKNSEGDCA
Chain of Dual specificity calcium/calmodulin-dependent 3',5'-cyclic nucleotide phosphodiesterase 1A (P54750 whole entry): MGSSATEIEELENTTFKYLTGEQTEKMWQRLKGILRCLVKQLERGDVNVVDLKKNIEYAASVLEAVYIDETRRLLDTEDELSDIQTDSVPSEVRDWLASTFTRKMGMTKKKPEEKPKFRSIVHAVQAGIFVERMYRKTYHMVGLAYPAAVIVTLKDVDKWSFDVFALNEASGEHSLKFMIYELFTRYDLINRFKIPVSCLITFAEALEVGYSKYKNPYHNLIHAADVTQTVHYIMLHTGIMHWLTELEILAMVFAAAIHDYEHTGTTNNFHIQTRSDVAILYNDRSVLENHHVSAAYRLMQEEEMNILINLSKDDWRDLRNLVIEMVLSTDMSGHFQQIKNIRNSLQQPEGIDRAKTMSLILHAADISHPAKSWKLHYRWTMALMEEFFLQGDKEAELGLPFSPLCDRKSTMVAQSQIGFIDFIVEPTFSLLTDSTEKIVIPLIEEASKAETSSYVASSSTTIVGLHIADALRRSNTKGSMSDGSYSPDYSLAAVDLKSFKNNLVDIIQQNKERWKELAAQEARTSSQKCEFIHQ
Chain of 3',5'-cyclic-AMP phosphodiesterase 4D (Q08499 whole entry): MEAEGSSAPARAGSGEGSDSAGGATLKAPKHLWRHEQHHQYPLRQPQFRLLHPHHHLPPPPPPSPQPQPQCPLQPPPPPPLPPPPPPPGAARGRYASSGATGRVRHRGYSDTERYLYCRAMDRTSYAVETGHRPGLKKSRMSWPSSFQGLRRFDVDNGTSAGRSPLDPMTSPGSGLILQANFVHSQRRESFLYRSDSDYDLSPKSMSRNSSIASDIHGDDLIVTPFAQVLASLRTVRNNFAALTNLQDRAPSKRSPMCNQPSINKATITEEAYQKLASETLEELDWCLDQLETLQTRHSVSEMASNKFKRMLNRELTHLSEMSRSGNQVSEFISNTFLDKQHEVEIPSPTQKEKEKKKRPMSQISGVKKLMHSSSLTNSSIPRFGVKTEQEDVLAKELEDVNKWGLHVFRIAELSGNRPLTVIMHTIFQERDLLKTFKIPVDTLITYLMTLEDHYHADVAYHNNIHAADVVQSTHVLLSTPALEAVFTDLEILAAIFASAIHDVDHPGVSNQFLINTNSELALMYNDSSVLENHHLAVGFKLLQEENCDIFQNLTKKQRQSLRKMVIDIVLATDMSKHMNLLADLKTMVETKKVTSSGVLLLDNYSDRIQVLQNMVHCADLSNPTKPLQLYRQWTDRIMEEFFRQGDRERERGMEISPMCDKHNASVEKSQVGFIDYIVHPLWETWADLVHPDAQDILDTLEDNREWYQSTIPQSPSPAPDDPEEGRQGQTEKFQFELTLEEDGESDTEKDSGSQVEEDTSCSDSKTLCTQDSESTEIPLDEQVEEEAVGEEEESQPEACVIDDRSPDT

Q: Which results are given for `CC[C@@H](NC(=O)c1cnn2cc(C)cnc12)c1ccc(OC(F)(F)F)cc1`?
A: IC50 [1]: > 10 µM; IC50 [2]: 4.2 µM; IC50 [3]: > 10 µM; IC50 [4]: > 10 µM; IC50 [5]: > 10 µM; IC50 [6]: > 10 µM; IC50 [7]: > 10 µM; IC50 [8]: > 10 µM; IC50 [9]: > 10 µM; clearance at 8 h (in vivo [10]): 43.9 mL/min/kg; clearance at 8 h (in vivo [11]): 43.2 mL/min/kg; Vd at 8 h (in vivo [12]): 3.95 L/kg; Vd at 8 h (in vivo [13]): 4.36 L/kg; Cmax at 8 h (in vivo [14]): 15.9 ng/mL; Cmax at 8 h (in vivo [15]): 44.8 ng/mL; Tmax at 8 h (in vivo [16]): 1.7 h; Tmax at 8 h (in vivo [17]): 0.7 h; AUC(0-t) at 8 h (in vivo [18]): 58.7 ng·h/mL; AUC(0-t) at 8 h (in vivo [19]): 133 ng·h/mL; bioavailability at 8 h (in vivo [20]): 15.4%; bioavailability at 8 h (in vivo [21]): 33.9%; Kp at 1 h (in vivo [22]): 2.9; Kp at 2 h (in vivo [23]): 2.6; chromatographic logD (physchem): 3.46; IC50 [24]: 7.4 µM
